Data taken from article PMC4336329 (PLoS ONE, 2015).
Screen size: about 310,000 compounds; about 14,000 (4.5%) showed an effect of 50% or more. The effect is printed as a negative number. The list shows a part of the results.

The compounds below were run against human ether-à-go-go-related gene (hERG) potassium channel (human, UniProt Q12809) (assay: primary screen, population patch clamp on CHO cells stably expressing hERG).
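Note: peak tail current of the secondary pulse compared with the same well before compound.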

Sequence of human ether-à-go-go-related gene (hERG) potassium channel (Q12809 whole entry, looked up): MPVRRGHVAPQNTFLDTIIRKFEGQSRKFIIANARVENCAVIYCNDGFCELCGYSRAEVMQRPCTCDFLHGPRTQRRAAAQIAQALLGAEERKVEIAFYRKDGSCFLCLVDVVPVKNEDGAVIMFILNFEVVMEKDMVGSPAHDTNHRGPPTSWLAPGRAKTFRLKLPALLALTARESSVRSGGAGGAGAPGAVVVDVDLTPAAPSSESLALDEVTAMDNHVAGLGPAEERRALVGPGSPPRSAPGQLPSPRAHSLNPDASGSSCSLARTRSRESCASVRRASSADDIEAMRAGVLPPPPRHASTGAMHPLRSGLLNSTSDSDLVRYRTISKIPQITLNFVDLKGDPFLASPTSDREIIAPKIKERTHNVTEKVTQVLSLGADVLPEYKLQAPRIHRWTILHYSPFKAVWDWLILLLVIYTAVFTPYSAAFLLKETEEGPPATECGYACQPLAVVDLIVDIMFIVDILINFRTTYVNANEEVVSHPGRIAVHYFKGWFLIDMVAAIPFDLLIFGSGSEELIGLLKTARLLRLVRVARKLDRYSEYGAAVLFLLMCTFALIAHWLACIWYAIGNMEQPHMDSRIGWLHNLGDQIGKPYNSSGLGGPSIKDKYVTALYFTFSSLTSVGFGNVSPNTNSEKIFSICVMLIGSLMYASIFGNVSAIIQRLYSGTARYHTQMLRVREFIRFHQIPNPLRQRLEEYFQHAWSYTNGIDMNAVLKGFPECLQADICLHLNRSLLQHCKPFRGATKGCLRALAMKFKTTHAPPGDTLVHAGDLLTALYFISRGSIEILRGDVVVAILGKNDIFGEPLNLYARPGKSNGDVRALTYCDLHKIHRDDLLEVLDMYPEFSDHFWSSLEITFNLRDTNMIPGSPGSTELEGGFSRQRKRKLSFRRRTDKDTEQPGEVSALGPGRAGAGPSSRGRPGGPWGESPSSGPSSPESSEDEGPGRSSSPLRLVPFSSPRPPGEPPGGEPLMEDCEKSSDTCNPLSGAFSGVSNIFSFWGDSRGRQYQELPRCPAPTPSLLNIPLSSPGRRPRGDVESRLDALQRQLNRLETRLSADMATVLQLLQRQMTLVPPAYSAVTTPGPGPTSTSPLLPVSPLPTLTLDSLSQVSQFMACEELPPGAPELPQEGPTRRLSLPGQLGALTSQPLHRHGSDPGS

Row | Structure (SMILES) | hERG current change (%, negative = inhibition) at 10uM [%]
1 | O=C(COC(=O)CCc1nc2ccccc2s1)Nc1ccc(Cl)cn1 | 0.449
2 | NC(=O)OCCCc1ccccc1 | 8.8
3 | Cc1ccc(/C=N\NC(=O)CNC(=O)C23CC4CC(CC(C4)C2)C3)o1 | -4.95
4 | CN(C(=O)c1ccc(F)cc1)c1ccccc1C(=O)NCc1ccccc1 | 7.47
5 | O=C(/C=C/c1ccc(-c2ccccc2[N+](=O)[O-])o1)c1ccc(Br)cc1 | -3.4
6 | CCOc1ccc(S(=O)(=O)Nc2cccc(C(=O)NCC3(N4CCCCC4)CCCCC3)c2)cc1 | -71.6
7 | COCCn1c(NCc2ccc(C)cc2)nc2c1c(=O)[nH]c(=O)n2C | 3.68
8 | O=C(OCC(=O)N1CCCC1=O)c1ccc(O)cc1O | 7.98
9 | O=C(/C=C/c1ccc([N+](=O)[O-])cc1)NCc1cccs1 | -4.69
10 | CSc1ccc(CCNS(=O)(=O)c2c(C)[nH]c(C)c2C(=O)N2CCCCC2)cc1 | -15.2
11 | c1ccc(C(c2ccccn2)c2ccccn2)cc1 | -2.42
12 | Cc1cc(N2CCN(c3ccc(C(F)(F)F)cc3[N+](=O)[O-])CC2)c2ccccc2n1 | -88.9
13 | O=C(COC(=O)c1cc([N+](=O)[O-])ccc1NCc1ccccc1)NCc1ccccc1Cl | 10.1
14 | COc1cccc(N2CC(=O)N(NC(=O)c3sc4nc(C)cc(C)c4c3N)CC2=O)c1 | 10.9
15 | COc1ccc(OC)c(N=C(C)C2=C(O)COC2=O)c1 | -5.35
16 | NC(=O)c1ccccc1OCC(=O)NS(=O)(=O)c1ccccc1 | 13.3
17 | COc1ccc(S(=O)(=O)N2CCN(C(=O)CN3C(=O)NC(C)(C)C3=O)CC2)cc1 | 4.49
18 | CCOC(=O)N1CCC(NC(=O)c2cc(C(=O)Nc3cccc(OC)c3)ccc2CO)CC1 | 14.4
19 | CC(C)(C)NC(=S)NCc1ccc2c(c1)OCO2 | -9.09
20 | O=C(CCNS(=O)(=O)c1cccc2nsnc12)NCc1ccco1 | -25.6
21 | Nc1nonc1-n1nnc(C(=O)N/N=C/c2ccc(O)cc2)c1COc1ccc(F)cc1 | 22.4
22 | O=C(COc1ccc2c(c1)oc(=O)c1ccccc12)NC(Cc1ccc(Cl)cc1)C(=O)O (centres unmarked) | 6.24

Row | Structure (SMILES) | hERG current change (%, negative = inhibition) at 10uM [%]
23 | COC(=O)Nc1ccc(S(=O)(=O)N2CCCC(C(=O)N3CCN(C)CC3)C2)cc1 (centres unmarked) | 32.8
24 | Cc1ccc(O)c(NC(=O)c2noc(C(C)C)c2[N+](=O)[O-])c1 | 13.3
25 | COc1ccccc1C(=O)C1CCCN(Cc2cn[nH]c2C2CCCCC2)C1 (centres unmarked) | -31.5
26 | COC(=O)Cc1[nH]n(-c2ccccc2)c(=O)c1C=Nc1ccc(C)cc1 | -23.9
27 | NNC(=O)c1ccc(COc2ccccc2)cc1 | 5.95
28 | COc1ccc(C(=O)N[C@H](C(=O)OCc2nc3ccsc3c(=O)[nH]2)C(C)C)cc1 | -29.3
29 | COc1ccc(Cc2c([O-])[nH]c(=O)[nH]c2=O)c(OC)c1.[NH4+] | 0.536
30 | O=C(N/N=C\c1ccc(CNS(=O)(=O)c2ccc(Cl)cc2)o1)C(=O)Nc1ccc(Oc2ccccc2)cc1 | 4.53
31 | C=C(C)Cn1c(N(CCO)Cc2ccccc2)nc2c1c(=O)[nH]c(=O)n2C | -2.53
32 | O=C(Nc1ccc(Br)cn1)C1CCN(S(=O)(=O)c2cccs2)CC1 | -15.4
33 | Cc1ccccc1NC(=O)Cc1nc(COC(=O)CSc2ccccc2)cs1 | -7.77
34 | CC/C(=N\NC(=O)COc1ccc(Br)cc1)c1ccc(OC)c(OC)c1 | 15.7
35 | CC(C)c1cccc(C(C)C)c1NC(=O)CN(C)C1CCS(=O)(=O)C1 (centres unmarked) | -30.8
36 | Nc1ccc(-c2ccc(N)cc2C(F)(F)F)c(C(F)(F)F)c1 | -7.82
37 | COc1ccc(-c2cc(C(F)(F)F)n3ncc(C(=O)NCc4ccco4)c3n2)cc1 | -7.53
38 | Nc1ccc(S(=O)(=O)c2ccc(N)c(N)c2)cc1 | 17.5
39 | Cc1nn(C)cc1C(C(=O)NC1CCCCC1)N(C(=O)Cn1nnc2ccccc21)c1ccc(F)cc1 (centres unmarked) | -1.32
40 | CCOC(=O)c1cccc(NC2c3ccccc3C(=O)N2Cc2ccco2)c1 (centres unmarked) | -10.9
41 | O=c1c2ccccc2n(Cc2cccc(F)c2)c(=O)n1C1CCCC1 | 3.19
42 | Cc1cccc(N(CC(=O)NC2CCCC2)C(=O)CS(=O)CC(=O)Nc2ccc3c(c2)OCO3)c1C (centres unmarked) | 18
43 | COc1cc(C(=O)NC(=S)N2C[C@H]3C[C@H](C2)c2cccc(=O)n2C3)cc(OC)c1OC | 4.45
44 | CCC(NC(=O)CN1CCN(C(=O)c2cccs2)CC1)c1ccc(C)cc1 (centres unmarked) | -37.2

Row | Structure (SMILES) | hERG current change (%, negative = inhibition) at 10uM [%]
45 | OC(COCC1CC=CCC1)Cn1cnc2ccccc21 (centres unmarked) | -10.4
46 | Cc1cc(NCc2ccccn2)n2ncc(-c3ccc(Cl)cc3)c2n1 | 5.16
47 | CCOc1ccc(C(=O)N[C@H](C(=O)Nc2cccc(S(=O)(=O)N3CCCCC3)c2)C(C)C)cc1 | 0.656
48 | Cl.c1ccc(C(OCCN2CCNCC2)c2ccccc2)cc1 | -11.9
49 | O=C(O)CN1CCN(CC(=O)O)CCN(CC(=O)O)CCN(CC(=O)O)CC1 | 7.18
50 | CCCN1C2CCCC1CC(NC(=O)c1ccc(F)cc1)C2 (centres unmarked) | -55.3
51 | COc1ccc2nc(C)cc(N/N=C/c3ccc(F)cc3)c2c1 | 0.337
52 | CN(C)CCCN(C(=O)COc1ccc(Cl)cc1)c1nc2c(F)cccc2s1.Cl | -67.1
53 | Cc1cc(Br)ccc1SCC(=O)OCC(=O)NC1CC1 | 22.5
54 | Cc1cc(OCCCCOc2ccc(S(N)(=O)=O)c(C)c2)ccc1S(N)(=O)=O | 13.4
55 | Cc1noc(C)c1S(=O)(=O)NCC(=O)O | 10.6
56 | COc1cc(C(=O)Nc2cnc(NC(=O)C(C)C)cc2C)cc(OC)c1OC | 15.4
57 | Cc1cc(NC(=O)COC(=O)[C@@H](NS(=O)(=O)c2ccccc2)C(C)C)no1 | -7.67
58 | COC(=O)CCCC(=O)N1CCC(CO)(CCc2ccccc2)CC1 | -23.8
59 | O=C(Nc1c2c(nn1-c1ccc(F)cc1)CS(=O)C2)c1ccc(S(=O)(=O)N2CCOCC2)cc1 (centres unmarked) | 21.9
60 | CC(=O)Nc1ccc(/C=N/NS(=O)(=O)c2cc(C)ccc2C)cc1 | -44.6
61 | O=c1cc(-c2ccccc2)n(S(=O)(=O)c2ccccc2)o1 | 6.78
62 | COc1cc(NC(=O)CN(C)Cc2ccc(OC(F)F)cc2)c(C)cc1[N+](=O)[O-] | -28.8
63 | Cc1cc(NC(=O)COc2coc(CN3CCN(c4ccc(F)cc4)CC3)cc2=O)no1 | -36.5
64 | CC1(C)CCC(=O)N2CC[C@H]3C[C@H](OC(=O)Nc4ccc5c(c4)OCO5)C[C@@H]1[C@H]32 | -0.41
65 | COc1ccc(C(=O)Nc2nc(C)cc(C)n2)cc1[N+](=O)[O-] | -7.34
66 | Cc1cscc1NC(=O)/C=C/C(=O)O | 2.91

Row | Structure (SMILES) | hERG current change (%, negative = inhibition) at 10uM [%]
67 | CCCCCOc1ccc(C(=O)NC(CCC)C(=O)O)cc1 (centres unmarked) | -1.3
68 | O=C(N/N=C/c1ccco1)C1CC1(c1ccccc1)c1ccccc1 (centres unmarked) | -2.06
69 | CNC(=O)c1ccccc1NC(=O)C1CC(=O)N(C(C)C)C1 (centres unmarked) | 13.8
70 | COC(=O)c1ccc2c(=O)[nH]c(CCl)nc2c1 | 10.7
71 | O=C(COc1ccc2c(c1)CCC2)N1CCN(c2ccc(F)cc2)CC1 | -2.53
72 | Brc1ccc(-c2cnc(-c3cccs3)o2)cc1 | -3
73 | Cc1ccc(C(=O)OCC(=O)Nc2ncc(Cl)cc2Cl)cc1NC(=O)c1ccco1 | -48.7
74 | CCc1cc2c(=O)[nH]c(CC(N)=O)nc2s1 | 13.2
75 | COc1cc(OC)c(CN2CCCCCCC2)cc1Br | -22.4
76 | COC(=O)C(NC(=O)CNS(=O)(=O)c1ccc(Br)cc1)c1ccccc1 (centres unmarked) | -4.73
77 | O=C(/C=C/c1ccccc1Cl)NC(=S)Nc1ccccc1C(=O)NC1CCCCC1 | 8.87
78 | COc1ccc2c(c1)c(N=O)c(O)n2C | 13.8
79 | Fc1ccc(-n2nnc(-c3ccccc3)n2)cc1 | 10.8
80 | CC(=O)NC(c1cccs1)c1cc([N+](=O)[O-])c2cccnc2c1O (centres unmarked) | 24.6
81 | CC(C)c1ccc(NC(=S)NNC(=O)C2CC2)cc1 | 15
82 | CCCC(=O)Nc1nnc(-c2ccc3c(c2)OCO3)s1 | 6.35
83 | Cc1cccc(-c2noc(-c3ccc(Cl)cc3[N+](=O)[O-])n2)c1 | 16.8
84 | COc1ccc(Cc2nc3ccccc3c(=O)n2N)cc1OC | 9.36
85 | O=C(C(=O)N1CCN(c2ccc([N+](=O)[O-])cc2)CC1)c1cn(CC(=O)N2CCOCC2)c2ccccc12 | -8.72
86 | Cc1cccc(NCC(=O)N/N=C/c2ccc(Br)cc2)c1 | 20.1
